# Assay results: the supplement of paper PMC8728848
# This is one part of the list.
# Key:
# Assay in all cases: glycan array binding signal (z-score within array); higher = stronger binding
# Details in all cases: glycan notation: IUPAC condensed, linker removed
# [1] = target: Man(a1-2)Man(a1-3)Man
# Procedure, shortened: (§1)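 Glycan array data were curated from 3228 arrays in the Consortium for Functional Glycomics database and kept only where the protein sequence was available. Glycan names were converted to IUPAC-condensed notation, and columns mapping to the same glycan were averaged. The binding signal is a within-array Z-score, averaged across arrays of the same protein sequence at different concentrations or buffers and across linkers. Negative Z-scores can be read as non-binding.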
# [2] = target: Man(a1-2)Man(a1-3)[Man(a1-2)Man(a1-6)]Man
# Procedure, shortened: as §1
# [3] = target: Man(a1-2)Man(a1-3)[Man(a1-2)Man(a1-6)]Man(a1-6)[Man(a1-2)Man(a1-2)Man(a1-3)]Man(b1-4)GlcNAc(b1-4)GlcNAc
# Procedure, shortened: as §1
# [4] = target: Man(a1-2)Man(a1-3)[Man(a1-2)Man(a1-6)]Man(a1-6)[Man(a1-3)[Man(a1-6)]Man(a1-6)]Man(b1-4)GlcNAc(b1-4)GlcNAc
# Procedure, shortened: as §1
# [5] = target: Man(a1-2)Man(a1-3)[Man(a1-3)[Man(a1-6)]Man(a1-6)]Man(b1-4)GlcNAc(b1-4)GlcNAc
# Procedure, shortened: as §1
# [6] = target: Man(a1-2)Man(a1-3)[Man(a1-6)]Man(a1-6)[Man(a1-2)Man(a1-3)]Man(b1-4)GlcNAc(b1-4)GlcNAc
# Procedure, shortened: as §1
# [7] = target: Man(a1-2)Man(a1-6)[Man(a1-3)]Man(a1-6)[Man(a1-2)Man(a1-2)Man(a1-3)]Man(b1-4)GlcNAc(b1-4)GlcNAc
# Procedure, shortened: as §1
# [8] = target: Man(a1-3)[Man(a1-6)]Man
# Procedure, shortened: as §1
# [9] = target: Man(a1-3)[Man(a1-6)]Man(a1-6)[Man(a1-3)]Man(b1-4)GlcNAc(b1-4)GlcNAc
# Procedure, shortened: as §1
# [10] = target: Man(a1-3)[Man(a1-6)]Man(b1-4)GlcNAc(b1-4)GlcNAc
# Procedure, shortened: as §1
# [11] = target: Man(b1-4)GlcNAc
# Procedure, shortened: as §1
# [12] = target: Neu5Ac(a2-3)Gal
# Procedure, shortened: as §1
# [13] = target: Neu5Ac(a2-3)Gal(b1-3)GalNAc
# Procedure, shortened: as §1
# [14] = target: Neu5Ac(a2-3)Gal(b1-3)GalNAc(b1-3)Gal(a1-4)Gal(b1-4)Glc
# Procedure, shortened: as §1
# [15] = target: Neu5Ac(a2-3)Gal(b1-3)GalNAc(b1-4)[Neu5Ac(a2-3)]Gal(b1-4)Glc
# Procedure, shortened: as §1
# [16] = target: Neu5Ac(a2-3)Gal(b1-3)GalNAc6S
# Procedure, shortened: as §1
# [17] = target: Neu5Ac(a2-3)Gal(b1-3)GlcNAc
# Procedure, shortened: as §1
# [18] = target: Neu5Ac(a2-3)Gal(b1-3)GlcNAc(b1-3)Gal(b1-3)GlcNAc
# Procedure, shortened: as §1
# [19] = target: Neu5Ac(a2-3)Gal(b1-3)GlcNAc(b1-3)Gal(b1-4)GlcNAc
# Procedure, shortened: as §1
# [20] = target: Neu5Ac(a2-3)Gal(b1-3)GlcNAc6S
# Procedure, shortened: as §1
# [21] = target: Neu5Ac(a2-3)Gal(b1-3)[Fuc(a1-4)]GlcNAc
# Procedure, shortened: as §1
# [22] = target: Neu5Ac(a2-3)Gal(b1-3)[Fuc(a1-4)]GlcNAc(b1-3)Gal(b1-4)[Fuc(a1-3)]GlcNAc
# Procedure, shortened: as §1
# [23] = target: Neu5Ac(a2-3)Gal(b1-3)[Neu5Ac(a2-3)Gal(b1-4)]GlcNAc
# Procedure, shortened: as §1
# [24] = target: Neu5Ac(a2-3)Gal(b1-3)[Neu5Ac(a2-6)]GalNAc
# Procedure, shortened: as §1
# [25] = target: Neu5Ac(a2-3)Gal(b1-4)Glc
# Procedure, shortened: as §1
# [26] = target: Neu5Ac(a2-3)Gal(b1-4)GlcNAc
# Procedure, shortened: as §1
# [27] = target: Neu5Ac(a2-3)Gal(b1-4)GlcNAc(b1-3)Gal(b1-3)GlcNAc
# Procedure, shortened: as §1
# [28] = target: Neu5Ac(a2-3)Gal(b1-4)GlcNAc(b1-3)Gal(b1-4)GlcNAc
# Procedure, shortened: as §1
# [29] = target: Neu5Ac(a2-3)Gal(b1-4)GlcNAc(b1-3)Gal(b1-4)GlcNAc(b1-3)Gal(b1-4)GlcNAc
# Procedure, shortened: as §1
# [30] = target: Neu5Ac(a2-3)Gal(b1-4)GlcNAc(b1-3)Gal(b1-4)[Fuc(a1-3)]GlcNAc
# Procedure, shortened: as §1
# [31] = target: Neu5Ac(a2-3)Gal(b1-4)GlcNAc(b1-6)[Gal(b1-3)]GalNAc
# Procedure, shortened: as §1
# [32] = target: Neu5Ac(a2-3)Gal(b1-4)GlcNAc6S
# Procedure, shortened: as §1
# [33] = target: Neu5Ac(a2-3)Gal(b1-4)[Fuc(a1-3)]GlcNAc
# Procedure, shortened: as §1
# [34] = target: Neu5Ac(a2-3)Gal(b1-4)[Fuc(a1-3)]GlcNAc(b1-3)Gal
# Procedure, shortened: as §1
# [35] = target: Neu5Ac(a2-3)Gal(b1-4)[Fuc(a1-3)]GlcNAc(b1-3)Gal(b1-4)GlcNAc
# Procedure, shortened: as §1
binder,measurement,setting,value
"FBG3 (Homo sapiens), Q9H4M3 (protein) MAVGNINELPENILLELFTHVPARQLLLNCRLVCSLWRDLIDLVTLWKRKCLREGFITEDWDQPVADWKIFYFLRSLHRNLLHNPCAEEGFEFWSLDVNGGDEWKVEDLSRDQRKEFPNDQVKKYFVTSYYTCLKSQVVDLKAEGYWEELMDTTRPDIEVKDWFAARPDCGSKYQLCVQLLSSAHAPLGTFQPDPATIQQKSDAKWREVSHTFSNYPPGVRYIWFQHGGVDTHYWAGWYGPRVTNSSITIGPPLP",glycan array binding signal (z-score),[1],-0.171
same,glycan array binding signal (z-score),[2],-0.478
same,glycan array binding signal (z-score),[3],0.214
same,glycan array binding signal (z-score),[4],-0.296
same,glycan array binding signal (z-score),[5],-0.063
same,glycan array binding signal (z-score),[6],-0.19
same,glycan array binding signal (z-score),[7],-0.497
same,glycan array binding signal (z-score),[8],-0.303
same,glycan array binding signal (z-score),[9],-0.243
same,glycan array binding signal (z-score),[10],-0.064
same,glycan array binding signal (z-score),[11],-0.529
same,glycan array binding signal (z-score),[12],-0.319
same,glycan array binding signal (z-score),[13],-0.293
same,glycan array binding signal (z-score),[14],-0.264
same,glycan array binding signal (z-score),[15],0.021
same,glycan array binding signal (z-score),[16],-0.272
same,glycan array binding signal (z-score),[17],-0.365
same,glycan array binding signal (z-score),[18],-0.619
same,glycan array binding signal (z-score),[19],-0.849
same,glycan array binding signal (z-score),[20],-0.738
same,glycan array binding signal (z-score),[21],-0.503
same,glycan array binding signal (z-score),[22],0.235
same,glycan array binding signal (z-score),[23],-0.437
same,glycan array binding signal (z-score),[24],-0.531
same,glycan array binding signal (z-score),[25],-0.379
same,glycan array binding signal (z-score),[26],-0.478
same,glycan array binding signal (z-score),[27],-0.658
same,glycan array binding signal (z-score),[28],-0.44
same,glycan array binding signal (z-score),[29],-0.726
same,glycan array binding signal (z-score),[30],-0.634
same,glycan array binding signal (z-score),[31],-0.608
same,glycan array binding signal (z-score),[32],-0.064
same,glycan array binding signal (z-score),[33],-0.293
same,glycan array binding signal (z-score),[34],-0.638
same,glycan array binding signal (z-score),[35],0.243
